We go through one molecule from patent US20110015138A1 (GENUS ONCOLOGY, published 2011).

The experiment concerns the target T1, purified recombinant NF-κB p65 (UniProt Q04206).
T1 construct: also called purified NF-κB p65
In words: GST pull-down of purified recombinant p65, immunoblot anti-p65.

T1 sequence (Q04206 whole entry): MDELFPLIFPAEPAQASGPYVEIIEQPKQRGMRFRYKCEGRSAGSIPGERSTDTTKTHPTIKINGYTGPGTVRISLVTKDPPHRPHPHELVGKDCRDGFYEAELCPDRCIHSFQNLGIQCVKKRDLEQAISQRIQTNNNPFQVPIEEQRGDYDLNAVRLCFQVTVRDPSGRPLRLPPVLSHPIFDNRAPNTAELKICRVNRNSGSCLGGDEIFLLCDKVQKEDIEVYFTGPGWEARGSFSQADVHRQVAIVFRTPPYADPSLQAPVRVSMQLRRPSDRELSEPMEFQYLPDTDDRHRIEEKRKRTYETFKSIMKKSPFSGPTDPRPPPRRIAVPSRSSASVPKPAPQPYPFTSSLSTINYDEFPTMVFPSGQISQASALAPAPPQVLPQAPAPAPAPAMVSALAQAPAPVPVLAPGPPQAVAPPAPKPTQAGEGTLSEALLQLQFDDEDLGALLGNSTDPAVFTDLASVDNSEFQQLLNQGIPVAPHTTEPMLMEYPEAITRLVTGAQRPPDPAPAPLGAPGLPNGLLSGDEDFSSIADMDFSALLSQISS

B1: GST (other)
chain: not shown
In the case of B1, the binding result is “no binding”.
